Results taken from the RNAGym collection of RNA variant scans (doi:10.1093/nar/gkz1192).
Read counts are not given, so values of variants with three or more changes are uncertain.

B1: CPEB3 Ribozyme (parent)
chain: UAACAGGGGGCCACAGCAGAAGCGUUCACGUCGCAGCCCCUGUCAGAUUCUGGUGAAUCUGCGAAUUCUGCUGUAUAUCUC

Variants of: B1
Assay: self-cleavage, relative activity (ratio to wild type); higher = more cleavage; in vitro, sequencing
How it was run: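 Relative activity compares each variant's cleaved/total read fraction with that of the unmutated ribozyme. To get these fractions, barcoded CPEB3 ribozyme libraries from rounds of error-prone PCR were transcribed with T7 RNA polymerase for 5 hours at 37°C and then given 15 min of DNase I treatment before EDTA was added. The RNAs were reverse transcribed with template switching and sequenced on Illumina, and DNA sequencing linked barcodes to variants. A minimum of 5 reads applied, and three batches were averaged.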

Variant	self-cleavage
U1C A20U U25A U60C	0.14
U1C A2G U43A	0.79
U1C A3G A21G U41A	0.56
U1C A20G U48C	0.36
U1C A2G A20G A64G	0.66
U1C A2G G6U A15G U78C	0.1
U1C A5G A35G G53A U69C A75G U78A	0.19
U1C A5G A20U A35G U54C A64G	0.12
U1C A15G A45U A56G	0.25
U1C A13U A21G A35U U41C U51A A75G	0.19
U1C A5G U49G	0.45
U1C A2U A28G U60A G63A U80A	0.19
U1C A5G A21G C39U U67C G70A	0.05
U1C A13G U25C C71U	0.26
U1C A20U C29U A47G U72C U76C	0.15
U1C A15G C23U A56U U67C	0.16
U1C A18G U54G	0.35
U1C A2G A64G U69C	0.46
U1C A18G C68A	0.23
U1C A13U A35U U72C	0.47
U1C A20G A28C G30C A45U U78C	0.21
U1C A5G A21U U26C C39U A56U U67C	0.18
U1C A21G A35G U72C U78C	1.1
U1C A15G G22C A57G U69A	0.12

Variant	self-cleavage
U1C A13U U25C G36A U51C U74C	0.05
U1C A5U C37A U49C A57G	0.04
U1C A21G A47U U51A U72A	0.12
U1C A20G U41C A45U U48C G61A A64U	0.05
U1C A5G U78C	0.62
U1C A15G U26C A28G A56U U80C	0.06
U1C A20G G42A U66C	0.33
U1C A21G A47G C71A U74C	0.13
U1C A20G A21C C40U U51A U66C U80C	0.24
U1A U72A U74A	0.93
U1C A13U A20G C68A C71U	0.19
U1C A3G A28G C34U U41G U67C U78C	0.6
U1C A15U A18G U41A A64G G73A	0.33
U1A U51C A56G U60A U80C	0.5
U1C A5G A18G U48A A64G	0.06
U1C A2U A18U G33A G42C	0.2
U1C A20G A75G U76A	0.36
U1C A2U A13U U54C U58C	0.17
U1C A2G G10A A35U U80C	0.06
U1C A18G A28G	0.29
U1C A13G A15G U43C	0.07
U1C A20G G33A	0.24
U1C A5G G9A A15G C39G	0.06
U1C A5G G46A U74C	0.5

Variant	self-cleavage
U1C A13G U41C U54C	0.65
U1C A15G U41G A56G C71A U78C	0.04
U1C A15C A20G U51A	0.35
U1C A5C A20G A35G U48A A65G	0.14
U1C A13C U60C	0.12
U1C A3G A45G A64G	0.37
U1C A5U U26C G52U	0.72
U1C A20U A35G G36A A64U U67C	0.11
U1C A3G U25A G63A	0.12
U1C A20C C39U U41A U69C	0.15
U1C A15G A21U C34U U58A A64U	0.04
U1C A15G A18G A28G U43C U74A	0.07
U1C A5G G6A A45U	0.06
U1C A5U U25C U60C U72C	0.08
U1C A3U A18G U80A	0.99
U1C A13C G24A	0.09
U1C A18G A47G	0.19
U1C A2G G10A A35U U69C	0.22
U1C A3G A18U A20G U25A U26A C44U	0.07
U1C A13G A21U G46A A56G G73A U76C	0.05
U1C A20U A57G U60C	0.08
U1C A2U A15G A18U A35U A75U	0.05
U1C A18U A35G A45U	0.22
U1C A3G U80A	1.12

Variant	self-cleavage
U1C A5G A64U U74C U80C	0.13
U1C A3U A18G A57G A64U	0.1
U1C A18U A28G U31C U49C A56U	0.25
U1C A2G A18U U51C A64G	0.15
U1C A13G U25C U41A	0.19
U1C A20G U26C U31A C40A U72A	0.04
U1C A2G G6A A15G A75G	0.05
U1C A2G C44U U66A	0.41
U1C A13U A35U U41C U54C A64G A75G	0.13
U1C A21G A28G U43C C44G U60A	0.05
U1C A3G A21G U26G G30A A75U	0.58
U1C A5G A13G U58C	0.67
U1C A5U A28G C29U U31A C50U U58C	0.18
U1C A21C U49C U60C	0.06
U1C A5U G33A A75G	0.26
U1C A5G A45U	0.58
U1C A2U G6U A21G U25C	0.38
U1C A18G U69C U72C	0.77
U1C A18U U26C U60C U67A U72C A75U	0.06
U1C A15U U54C U69C	0.23
U1C A18G A35G U72C	0.14
U1C A20U U41C U43C G61A U80C	0.07
U1C A15G U78C	0.8
U1C A2U U26A U49C	0.26

Variant	self-cleavage
U1C A18U G46C G52U A64U	0.12
U1C A5C G7U U41A	0.42
U1C A13U A18U U48C A64U	0.1
U1C A13U A35G C40U A57G A77U	1.05
U1C A18G C32A C37A C50U	0.27
U1C A2U U31A A77G	0.39
U1C A15U U51A U54C U80C	0.67
U1C A21G C34A U60C U66C U72C U80C	0.06
U1C A13U A64G U67C	0.16
U1C A2G A15G A18G	0.61
U1C A18G U76A	0.72
U1C A5G A13U A15G A47G U49A U80C	0.75
U1C A15G A56U U76A	0.42
U1C A3G G10A G22A U25C U54C C62U	0.04
U1C A15G A18G	0.4
U1C A13U A20G C68G	0.16
U1C A21G C40U U69C	0.07
U1C A5G A21U C39U U67C A77G	0.24
U1C A3G G9A A65G	0.06
U1C A2U C17A	0.41
U1C A18U U48C U54A	0.32
U1C A2U A3U G7C C34U A75G	0.06
U1C A3G G33C U74C	0.51
U1C A13C A35G C68A	0.74

Variant	self-cleavage
U1C A20G U51C U80C	0.98
U1A U54C G55C U60G	0.14
U1C A13G A35U C39G A56U	0.04
U1C A13G A47G U60C U66A	0.26
U1C A20G U80C	0.94
U1C A20G U80G	0.98
U1A U49C A64G U80C	0.28
U1C A2G A5G A21C G33A U80C	0.5
U1C A15U A21G C23U U60G U78C	0.06
U1C A2U A28G U58C U80A	0.25
U1C A2G G7U A28G C44U U67A	0.05
U1C A2U A28U A56C	0.23
U1C A15G U60C	0.15
U1C A13U U31A A45G U49C A65G	0.16
U1C A18G U41A U49C C79A	0.34
U1C A5G U41A A45U A64U A65C U69A	0.23
U1C A13G A57G	0.5
U1C A3G G33C U54G	0.33
U1C A13G A21G U67C A77U	0.07
U1C A18U A56U	0.35
U1C A5G C27U U80C	0.09
U1C A13G U72C	0.92
U1C A18U A28G	0.09
U1C A5U A47G	0.7

Variant	self-cleavage
U1C A5G A15G A18G A28G U48A U72G	0.3
U1C A5G A35U U43C C62U A65C	0.33
U1C A3G A21G U26C A35G G70U	0.07
U1C A15U A77U	0.81
U1C A15G A20U U25C A77U	0.05
U1C A5G U26A A65G	0.26
U1C A3G A64G	0.36
U1C A13C U26C U41A U60C	0.49
U1C A5U A28U	1.06
U1C A2G U25C A47G U60C	0.64
U1C A20U U31G A45U A64C U67C	0.07
U1C A3G A5G A57C C59U U69C	0.35
U1C A2G A20G U41A U49C U60C A64G	0.29
U1C A18G A64U U67A	0.18
U1C A21G G30A U54G A64U U74A	0.16
U1C A20G U26A U72A	0.46
U1C A13U U60C U76C	0.38
U1C A2G C32A A35G C79A U80C	0.26
U1C A20G A28U C34A G55A A57G U69C	0.19
U1C A5G G42A G52A A57U	0.29
U1C A3G C17U G53A	0.4
U1C A20U A28G U72C	0.09
U1C A5U A35U G55A	0.5
